Measured values as given in publication PMC4336329 (PLoS ONE, 2015).
Hit rate of the full screen: of about 310,000 compounds, about 14,000 (4.5%) showed an effect of 50% or more. Effects have a minus sign here. The list shows a part of the results.

What follows are compounds tested against human ether-à-go-go-related gene (hERG) potassium channel (human, UniProt Q12809) (assay: primary screen, population patch clamp on CHO cells stably expressing hERG).
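Further: peak tail current of the secondary pulse compared with the same well before compound.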

Chain of human ether-à-go-go-related gene (hERG) potassium channel (Q12809 whole entry, looked up): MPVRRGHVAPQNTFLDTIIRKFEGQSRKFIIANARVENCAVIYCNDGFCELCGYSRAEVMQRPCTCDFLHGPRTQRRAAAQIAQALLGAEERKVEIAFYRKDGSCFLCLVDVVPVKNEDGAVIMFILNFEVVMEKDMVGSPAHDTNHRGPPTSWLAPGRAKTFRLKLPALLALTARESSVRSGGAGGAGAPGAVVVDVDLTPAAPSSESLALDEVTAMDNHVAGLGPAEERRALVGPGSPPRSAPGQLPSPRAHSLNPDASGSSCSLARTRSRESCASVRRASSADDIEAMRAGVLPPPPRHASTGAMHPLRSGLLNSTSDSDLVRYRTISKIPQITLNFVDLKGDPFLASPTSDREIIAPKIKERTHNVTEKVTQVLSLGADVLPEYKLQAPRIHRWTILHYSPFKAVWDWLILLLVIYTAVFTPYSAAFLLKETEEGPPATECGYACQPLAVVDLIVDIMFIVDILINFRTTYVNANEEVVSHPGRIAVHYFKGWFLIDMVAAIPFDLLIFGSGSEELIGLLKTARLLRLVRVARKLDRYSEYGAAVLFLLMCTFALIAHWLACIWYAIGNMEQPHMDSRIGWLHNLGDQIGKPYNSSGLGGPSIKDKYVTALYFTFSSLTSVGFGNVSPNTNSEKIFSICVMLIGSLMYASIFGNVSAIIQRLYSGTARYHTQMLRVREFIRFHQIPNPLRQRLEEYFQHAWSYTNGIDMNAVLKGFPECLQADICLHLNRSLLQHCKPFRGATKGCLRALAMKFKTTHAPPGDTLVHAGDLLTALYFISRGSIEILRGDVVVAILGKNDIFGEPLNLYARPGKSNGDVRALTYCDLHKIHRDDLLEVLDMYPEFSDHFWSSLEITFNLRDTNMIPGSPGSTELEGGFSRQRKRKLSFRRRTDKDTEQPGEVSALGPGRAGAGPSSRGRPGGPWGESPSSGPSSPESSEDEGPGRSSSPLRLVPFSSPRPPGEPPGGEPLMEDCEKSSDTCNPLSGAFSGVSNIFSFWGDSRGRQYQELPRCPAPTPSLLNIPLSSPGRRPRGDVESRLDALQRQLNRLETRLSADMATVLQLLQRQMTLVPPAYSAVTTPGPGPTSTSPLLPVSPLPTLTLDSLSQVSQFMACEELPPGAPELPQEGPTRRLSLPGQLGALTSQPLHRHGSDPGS

SMILES | hERG current change (%, negative = inhibition) at 10uM
COc1ccc(C2c3[nH]c4ccccc4c3C[C@H]3C(=O)N(c4ccccc4C(=O)N4CCC(C(=O)O)CC4)C(=O)N23)cc1 (stereo partly shown) | 9.67%
CCN(CC)CC(O)CCCCCCCCC(=O)OC.Cl (stereo not shown) | 10.3%
Cc1c(N=NC2=C(O)CCCC2=O)c(=O)n(-c2ccccc2)n1C | 21.2%
COC(=O)C1=C(CSc2nncn2C)NC(=O)NC1c1cc(C)ccc1C (stereo not shown) | -12.1%
CCN(CC)C(=O)c1ccc(N(Cc2ccccc2)S(C)(=O)=O)cc1 | -0.944%
O=C(c1ccc(Br)o1)N1CCN(CCc2ccncc2)CC1 | -69.8%
CSCCNC(=O)c1cccc(Cl)c1 | 14.3%
Cc1sc2nc(CN3CCOCC3)nc(Cl)c2c1C | 12.4%
Cc1ccc(N2CC(C(=O)Nc3nnc(C(C)C)s3)CC2=O)cc1 (stereo not shown) | -2.24%
O=C(COc1cc(O)c2c(=O)cc(-c3ccccc3)oc2c1)c1ccc(F)cc1 | 13%
CCOC(=O)Cc1nnc(NC(=O)C(CC)Sc2nc(C)cc(=O)[nH]2)s1 (stereo not shown) | 4.2%
O=C(Nc1ccc(Cl)cc1)N1CCCN(Cc2ccccc2F)C1 | -26.3%
CC(Sc1nnc(-c2ccco2)n1-c1ccccc1)C(=O)NCC1CCCO1 (stereo not shown) | -20.3%
COc1cccc(Cn2nnc(C(=O)NCCc3ccc(Cl)cc3)c2N)c1 | 5.57%
Nn1c(SCC(=O)Nc2ccc3c(c2)OCO3)nnc1C1CC1 | 7.91%
COc1ccccc1N1CCN(C(=O)C2CCC(Cn3c(=S)[nH]c4ccccc4c3=O)CC2)CC1 (stereo not shown) | 17.2%
N#Cc1c(-c2cccc(Br)c2)cc(-c2ccco2)[nH]c1=O | 20.3%
CC(C)(C)C(=O)Nc1ccc(S(=O)(=O)Nc2nccs2)cc1 | 7.16%
NC(=O)[C@@H]1CC2(CC(c3cccc(NC(=O)CC(c4ccccc4)c4ccccc4)c3)=NO2)CN1C(=O)COc1ccc(Cl)cc1 (stereo partly shown) | 12.5%
CC(C)(C)c1ccc(-c2cnco2)cc1 | -26.7%
O=C(Cc1ccc(F)cc1)OCC(=O)c1cc2ccccc2o1 | -2.43%
Cc1cc(Cl)ccc1OC(C)C(=O)NNC(=O)C1CCCCC1C(=O)O (stereo not shown) | 2.35%

SMILES | hERG current change (%, negative = inhibition) at 10uM
Fc1ccc(-c2nc(-c3cnccn3)no2)c(Cl)c1 | 13.7%
COc1ccccc1NS(=O)(=O)c1cccc(C(=O)NCc2ccncc2)c1 | 8.75%
CC(/C=C/c1ccco1)=N\NC(=O)C(O)c1ccccc1 (stereo not shown) | 13%
Cc1nc2cc(F)ccc2n1C1CCN(C(=O)c2ccc(F)cc2F)CC1 | -56.4%
CN1CCN(C(=O)c2cc(-c3ccccc3)on2)CC1 | -4.93%
CCOC(=O)CN1C(=O)C(=O)N(Cc2c(C)cc(C)cc2C)C1=O | 16.9%
Cc1cc(C)c(C)c(OCC(=O)NCc2nc(-c3ccccc3)no2)c1 | 16.4%
Cc1ccc(C(=O)O/N=C/c2ccc(N(C)C)cc2)cc1 | 25.6%
COc1ccc2nc(NC(=O)Cc3ccc(OC)c(S(=O)(=O)N4CCOCC4)c3)sc2c1 | -22.1%
COc1ccc(-c2nnc(SCCOc3cccc(C)c3)n2N)cc1 | 5%
CCN(CC)c1ccc(C(=O)c2cnc(/N=C/N(C)C)s2)cc1 | -10.6%
Cc1nc2nc(COc3ccccc3)[nH]n2c(=O)c1Cc1ccccc1 | 0.308%
CCOc1ccccc1N1CC(C(=O)Nc2ccccc2N2CCOCC2)CC1=O (stereo not shown) | 12.5%
O=C(CSc1ncnc2sc(-c3ccccc3)cc12)NC1CCS(=O)(=O)C1 (stereo not shown) | -2.65%
CCOC(=O)N1CCC(N2Cc3cccc(C(=O)Nc4c(C)cccc4CC)c3C2=O)CC1 | -77.1%
NC(=O)c1ccc(NC(=O)Cc2ccc(S(=O)(=O)N3CCCCC3)cc2)cc1 | 1.92%
COC(=O)c1c(NC(=O)c2ccco2)sc2c1CC(C)(C)NC2(C)C | -21.2%
CN(C(=O)COC(=O)c1ccc2c(=O)n3c(nc2c1)CCC3)C1CCS(=O)(=O)C1 (stereo not shown) | 10.5%
CC(C)Nc1ccc(-n2nc3ccccc3[n+]2[O-])cc1 | 6.09%
O=C(CSc1nnc(CNC(=O)c2c(F)cccc2Cl)o1)Nc1ccccc1 | -3.82%
O=C(COC(=O)c1cncc(Br)c1)NC1CCCCCC1 | -14.6%
Cc1ccc(-c2c(C(=O)O)c(C(=O)O)c3n2CSC3)cc1 | 5.86%

SMILES | hERG current change (%, negative = inhibition) at 10uM
COc1ccc(NC(=O)CCCn2c(=O)c3sccc3n(Cc3ccc(C)cc3C)c2=O)cc1 | -24.2%
COC(=O)c1ccc(NC(=O)CSc2nnc(COc3c(C)cccc3C)o2)cc1 | 4.5%
Cc1ccc(S(=O)(=O)N2CCOC2CNC(=O)C(=O)NCc2ccc(Cl)cc2)cc1 (stereo not shown) | 13.1%
CCOC(=O)COc1ccc(S(=O)(=O)N2CCN(c3ccccc3)CC2)cc1 | -39%
Cc1ccc(SCCC(=O)Nc2cc(C)on2)cc1 | 7.42%
Cc1cc(C)n2nc(SCC(=O)N3CCC4(CC3)OCCO4)nc2n1 | 11%
C/C(Cc1ccccc1)=N\NC(=O)c1ccc(F)cc1 | 22.8%
COc1ccc(OC)c(NC(=O)CSc2nnc(-c3ccco3)n2-c2ccc(C(=O)O)cc2)c1 | -3.68%
CC1(c2ccccc2Cl)NC(=O)N(CC(=O)Nc2cccnc2Cl)C1=O (stereo not shown) | -1.42%
COCCCNC(=O)C1CC(=O)OC1c1ccc(OC)c(OC)c1 (stereo not shown) | 5.42%
N#Cc1c(C(F)(F)F)cc(Cc2ccccc2)nc1SCC(=O)NCC(=O)O | -0.926%
COc1ccccc1-n1c(O)c(/C=N/N2CCCCC2)c(=O)n(-c2ccccc2OC)c1=S | 8.1%
O=C1NCC(O)=C1C=NCCO | -10.4%
c1ccc(CN(Cc2cccs2)C(c2cccs2)c2nnnn2C2CCCC2)cc1 (stereo not shown) | -5.48%
CCN(CC)c1ccc(CNCCc2ccccc2F)cc1.Cl | -5.46%
CCOc1cc(C2NC(=S)NC(C)=C2C(=O)Nc2ccccc2)ccc1O (stereo not shown) | 23.2%
Cc1cc(C)c(C#N)c(=N)o1 | 6.34%
O=C(Nc1nc(-c2cccs2)c(C(=O)C(F)(F)F)s1)c1ccco1 | 22.7%
Cc1cc(OCC(=O)NCCCn2ccnc2)c2c(C)c(C)c(=O)oc2c1 | -63.6%
NC(=O)COc1ccccc1/C=C1/SC(=O)N(CC(=O)N2CCc3ccccc3C2)C1=O | -23.7%
CCN(CC)c1ccc(NC(=O)c2ccccc2F)cc1S(=O)(=O)Nc1ccccc1OC | 4.31%
Cn1c(N)c(-c2ccccc2)c2ccc([N+](=O)[O-])cc2c1=O | 15.3%

SMILES | hERG current change (%, negative = inhibition) at 10uM
CCOc1ccc(S(=O)(=O)N2CCC(C(=O)NCCc3ccc(S(N)(=O)=O)cc3)CC2)cc1 | 20.4%
CCCc1[nH]nc2c1C(C1CC=CCC1)C(C#N)=C(N)O2 (stereo not shown) | -44.4%
COC(=O)C1CCN(C(=O)COC(=O)c2cccc(NS(=O)(=O)c3ccccc3)c2)CC1 | -17.6%
O=C(N/N=C/c1ccccn1)c1cccs1 | 41%
COc1ccc2c(c1)c1nc3ccccc3nc1n2CCn1c(=O)oc2ccccc21 | 16.6%
CCOC(=O)C1C(c2ccccc2)C(C(=O)OCC)C1c1ccccc1 (stereo not shown) | 16.1%
COc1cc(C(=O)Nc2ccc3c(c2)CCCN3C(=O)c2ccco2)c([N+](=O)[O-])cc1OC | -27.6%
Cc1ccc(S(=O)(=O)NC(=O)COc2ccc(Cl)cc2Cl)cc1 | 17.3%
Cc1ccc2ncnc(-c3ccccc3)c2c1 | 15.6%
Cc1ccccc1NC(=O)c1sc(Cl)nc1-c1ccccc1 | -8.92%
CCOC(=O)Nc1ccc(NC(=O)OCC)cc1 | 17.4%
O=C(NC1CCCCCCC1)c1ccccc1O | -6.11%
CCc1ccc(C(=O)N2CCCN(C)CC2)s1 | -5.7%
CC(C)CC1c2[nH]c3ccccc3c2CCN1CCCn1cccn1 (stereo not shown) | -63.1%
CC(=O)NC(=S)Nc1ccccc1C(=O)Nc1ccccc1 | 11.2%
COc1ccc2nc(-c3ccccc3)cc(OC)c2c1 | -5.23%
O=C(c1ccc2ccccc2c1)N1CCN(c2ccc([N+](=O)[O-])c(N3CCOCC3)c2)CC1 | -18.8%
O=C(NCc1ccccn1)c1ccc2ccccc2n1 | -34.8%
Cc1ccc(C)c(NC(=O)C2(C)CC3c4ccccc4C2c2ccccc23)c1 (stereo not shown) | 2.55%
CC(C)(C)OC(=O)N1CCC[C@H]1C(=O)N/N=C/c1cccc2nccnc12 | -9.27%
CN(CC(=O)Nc1ccc(F)cc1)C(=O)COC(=O)/C=C/c1ccc(OC(F)F)cc1 | -25.5%
CCOc1ccc(N(CC(=O)N2CCCC2)S(=O)(=O)c2c(C)noc2C)cc1 | -10.7%
